Data reported in the supplement of paper PMC11417369.
± gives the standard deviation of the averaged measurements. Some of the results follow.

tested on: PfAP2-LT AP2 domain (GST-tagged); assay: gcPBM binding intensity (ln(normalized median fluorescence intensity)); higher = stronger DNA binding
How it was run: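 Binding of GST-tagged P. falciparum DNA-binding domains, expressed in E. coli and used at about 25 μg on average, was carried out for 1 h in 1× PBS containing 1% milk, 0.2 mg/ml BSA, 0.5% salmon testes DNA and 0.03% Triton X-100. The target was an Agilent 4 × 180k array of primer-extended double-stranded 36-bp intergenic genomic probes plus negative controls, read with Alexa488 anti-GST antibody at 488 nm. Binding intensity is the highest Masliner-normalised natural-log median intensity across replicate spots of either probe orientation.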

| Sequence | gcPBM binding intensity (ln) |
| --- | --- |
| TACTATATATTATATAGTACATAAGATATACAACAT [XGTACX_site2929] | 8.72 ± 0.31 |
| AAGAAAATTAACCCATGTACTTATGTAGATAGCAAG [XGTACX_site1049] | 8.95 ± 0.47 |
| CAATATTATAGATATACACACATAATGTGTAAAAAC [CACACA_site6631] | 9.25 ± 0.44 |
| TAAAACTTAATATAAACACACAAAAATTAATAAATA [CACACA_site4370] | 8.74 ± 0.46 |
| ATATATATATATATTGCACACATATAAATATATATA [CACACA_site8167] | 9 ± 0.34 |
| GAAAAATTTAATTATTGTACGTTTCATCTATATTTA [XGTACX_site414] | 8.72 ± 0.43 |
| TTTTTGTTTTTTTTGTGTACTTATCAAATATATATA [XGTACX_site7273] | 8.71 ± 0.44 |
| AAAAAAATAAATAAATGTACACATATATATATATAT [XGTACX_site4350] | 9.54 ± 0.38 |
| ATCATTTATATTTTATGTACATATATAATTATATTT [XGTACX_site2129] | 8.99 ± 0.44 |
| AGTGAAATTTTAGTCACACAGTTTTATCTTTAAGAA [CACACA_site5202] | 8.5 ± 0.51 |
| TTATGTCTAATGAAATGTACATGAATAAATTAAAGT [XGTACX_site8138] | 8.88 ± 0.49 |
| TAGAGGAATATAATATGTACATAATATAATGTATAT [XGTACX_site2838] | 8.87 ± 0.51 |
| AATTATATAAGCCACGCATGTGTGCATAAAAATACA [TGCATGCA_site114] | 9.07 ± 0.3 |
| CACGTGAAAATACAAGCATGCAAGCTTTTTTTTTCT [TGCATGCA_site642] | 8.86 ± 0.22 |
| AATTTTCAATAGTATACACACAATTCTATAAATATA [CACACA_site6650] | 8.64 ± 0.42 |
| AATGAGAATTTTATTACACACTTTAATATATTTTCA [CACACA_site784] | 8.7 ± 0.44 |
| AATTTTTTTATAGCACGTACAAAAATACAAAATACA [XGTACX_site1569] | 8.61 ± 0.33 |
| AAAAAAAAAAAGAAGGGTACATATTATATATAATAT [XGTACX_site6204] | 8.71 ± 0.45 |
| TATATATAAACATAATGTACATATAATAAGTAATAT [XGTACX_site497] | 8.95 ± 0.4 |

| Sequence | gcPBM binding intensity (ln) |
| --- | --- |
| AGCCCAAAAAAGTAGACATGCAAAAACTTTACAACT [TGCATGCA_site550] | 8.93 ± 0.4 |
| GATCATTCTAAATATAAACACACATAAATATATACA [CACACA_site9108] | 8.89 ± 0.43 |
| ATAATATAATAATATTGTACATGGTCAAATATGAAA [XGTACX_site8390] | 8.77 ± 0.4 |
| GTTTATATATTATAAAGTACATATGAATTTAATAAT [XGTACX_site3601] | 8.57 ± 0.42 |
| AAAAAATAAATAAACATAAATAAATAAATAAATATA [XGTACX_negctrl_site340] | 8.71 ± 0.49 |
| ATTTCAAAATATAGCTGTACAAAAAATGTAGATATA [XGTACX_site5843] | 8.9 ± 0.38 |
| CTTAAAAAAATATATTGTACATATATATATACAACT [XGTACX_site1281] | 8.55 ± 0.43 |
| TATATTCCCATATAACGTACATATGAGACACCAACT [XGTACX_site8099] | 8.79 ± 0.42 |
| TTAAAATGATTGTTACTTTTTTTTCCGTTTTCTTAA [CACACA_negctrl_site1195] | 8.46 ± 0.6 |
| ATAAATAGTATTATATGTACACATAATATTTATAAA [XGTACX_site4751] | 8.87 ± 0.57 |
| TTTCTCTCTTATAAAATACACACGAACAATCATATT [CACACA_site509] | 8.77 ± 0.4 |
| AAAAATGGTGTTAACACACACATATATATATATATA [CACACA_site571] | 9.94 ± 0.2 |
| TTAATATAGGGAAAAAAAAGAAAATCGAAAATGTGT [CACACA_negctrl_site834] | 8.72 ± 0.42 |
| TATAATTATGATGATAGTACGTATGAGTTCAAAACA [XGTACX_site4211] | 8.77 ± 0.46 |
| CACATTTTTTAAATATTTTTCTACTCCATAATGTTT [CACACA_negctrl_site557] | 8.66 ± 0.45 |
| ATAGTTACACGCCAAAAAAAAAAAAAAAAAAAAAAA [CACACA_negctrl_site1133] | 8.21 ± 0.42 |
| TAACTTCAAAAATCTTGTACATAAATATATAAAACA [XGTACX_site8574] | 8.47 ± 0.48 |
| AATTTTGTCCTATGTTGTACTATTTTGCTCTATTTT [XGTACX_site7139] | 9.21 ± 0.35 |
| TTTCCGGTAATATGGAAATATATGTGGGTTTTTTTT [CACACA_negctrl_site1536] | 8.62 ± 0.37 |

| Sequence | gcPBM binding intensity (ln) |
| --- | --- |
| ACTATTTTAAAAATATGTACATACGTTGTAATTTAA [XGTACX_site7999] | 8.69 ± 0.4 |
| CGAAGGATAAACATACGTACATATATGTGTATAATA [XGTACX_site779] | 9.04 ± 0.55 |
| CTGTATTTATTTTTCTGTACCAAATCACCCCTTGTA [XGTACX_site395] | 8.81 ± 0.54 |
| TATATTTATAAATGAACACACACGCAATTTGAATCG [CACACA_site3370] | 9.16 ± 0.29 |
| GATGTATAAAATAATACATGCATGTCCTACATATAT [TGCATGCA_site155] | 9.35 ± 0.48 |
| TACGTTTTATGACACACACACAAAAAAAAAAAAAAA [CACACA_site7764] | 9.05 ± 0.54 |
| TTTCTTTTTCGATATACACACTGTATGTGTCTAAAA [CACACA_site6054] | 8.96 ± 0.57 |
| CATCACCTTTTTAAATGTACGCATAATACCAAAAAA [XGTACX_site1587] | 8.6 ± 0.48 |
| GTAGGTTACAAAATGTGAGAGAAGCAAATATAGAAA [CACACA_negctrl_site1819] | 8.88 ± 0.5 |
| TTTTGTTTTTAGTTTATACACACCATATTAATATAA [CACACA_site3102] | 8.75 ± 0.42 |
| TTGTATTAAAATCAAGTGCATATAATTTAAGTTCAT [GTGCAC_site9495] | 8.6 ± 0.36 |
| CTTTGGTTATAACACACATGCACACGTAAATAAATA [TGCATGCA_site976] | 9.29 ± 0.42 |
| TATCATATATTATAGCGTACTTATTTATTTATTTAT [XGTACX_site1676] | 8.88 ± 0.54 |
| AAAAAAAAAAAAAAAAGTACATGAAAAAAAGAAGAA [XGTACX_site8384] | 8.7 ± 0.66 |
| TATAATAGTTCATAGGTGCAATATAATAAATTTATA [GTGCAC_site9573] | 8.65 ± 0.49 |
| ATATAAGTACCTATAACACACATATATTATAAGTAT [CACACA_site7281] | 9.06 ± 0.46 |
| TAGAATAAATTAATTACACACGGAATTATATATATA [CACACA_site1616] | 8.78 ± 0.42 |
| TATAGCAAAATATTCACACAAACTATTAATAAAAGT [CACACA_site5795] | 8.96 ± 0.4 |
